Data as given in PubChem BioAssay AID1671188 (National Center for Advancing Translational Sciences (NCATS), 2021).
In all, about 100,000 compounds went through this assay and about 250 (0.25%) were called active. Inconclusive means that the source gave no clear call. Such entries were picked first, then a sample of the others. Calls follow the shape of the dose curve; as a rule, active = well fitted inhibition curve with a large enough effect; inconclusive = small, poorly fitted or top-dose-only effect; inactive = flat fitted curve, though single readings scatter. No potency is given beside an inconclusive call; the fits are too rough.

target: Alanine aminotransferase 2 (Homo sapiens) (UniProt Q8TD30); experiment: Primary qHTS assay for inhibitors of Glutamate pyruvate transaminase 2 (GPT2); conditions: Recombinant GPT2, coupled pyruvate oxidase/HRP Amplex Red fluorescence; series mostly up to 57.7 µM; also: nearly all actives have a fitted effect of over 60% in size
Sequence of UniProt Q8TD30 (Q8TD30 whole entry, looked up): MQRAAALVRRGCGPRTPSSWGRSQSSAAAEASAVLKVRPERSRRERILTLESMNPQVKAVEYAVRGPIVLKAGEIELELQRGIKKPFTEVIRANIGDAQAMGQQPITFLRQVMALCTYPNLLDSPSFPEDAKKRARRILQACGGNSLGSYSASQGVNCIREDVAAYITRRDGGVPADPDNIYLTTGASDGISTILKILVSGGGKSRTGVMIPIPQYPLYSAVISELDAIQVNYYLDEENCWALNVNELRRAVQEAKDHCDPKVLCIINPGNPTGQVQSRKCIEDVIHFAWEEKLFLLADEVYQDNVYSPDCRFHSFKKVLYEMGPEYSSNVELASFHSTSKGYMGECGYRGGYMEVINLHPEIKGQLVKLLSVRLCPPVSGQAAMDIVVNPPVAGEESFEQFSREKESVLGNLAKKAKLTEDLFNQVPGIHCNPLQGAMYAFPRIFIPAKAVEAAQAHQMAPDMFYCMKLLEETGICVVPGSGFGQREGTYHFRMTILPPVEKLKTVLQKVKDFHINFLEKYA
How it was run: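 Fluorescence of coupled pyruvate oxidase/HRP/Amplex Red system (50uM Amplex, 30 min, dark) reports pyruvate formed by GPT2. Enzyme reaction: 10ng/uL GPT2, 2mM L-alanine, 250uM a-KG, 30 min room temperature, pH 7.5; 50uM AOA control.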
Potency is read from the fitted curve at half-maximal effect; tags tell the direction and shape of the fitted curve.

Row | SMILES | Potency
1 | Cc1nc(-c2cccc(Cl)c2)n(CC(=O)NC(C)C)c(=O)c1CCO | inactive
2 | COc1ccccc1CN1Cc2cc(NS(=O)(=O)c3ccc(C)c(F)c3)ccc2OC(C)C1=O (stereo not given) | inactive
3 | O=C(C1CC(=O)N(C2CC2)C1)N1CCN(Cc2ccncc2)CC1 (stereo not given) | inconclusive [inhibitor, single point]
4 | Cc1cccc(NC(=O)Nc2ccc(C)n(CC(=O)NCCN3CCCCC3)c2=O)c1 | inconclusive [inhibitor, single point]
5 | COc1ccc(-c2ccnc(N[C@H]3CO[C@H]4[C@@H]3OC[C@@H]4NS(=O)(=O)c3ccc(NC(C)=O)cc3)n2)cc1 | inactive
6 | O=C(C1CCCN1C(=O)c1ccc(F)cc1)N1CCC(c2ccccc2)CC1 (stereo not given) | inactive
7 | CC1(C(=O)NCc2cccnc2)CCCc2cnc(Nc3ccccc3F)nc21 (stereo not given) | inconclusive [inhibitor, single point]
8 | COc1ccc(S(=O)(=O)N2CCCCC2c2nc(-c3cnccn3)n[nH]2)cc1 (stereo not given) | inconclusive [inhibitor, single point]
9 | CCN(CC)C(=O)N1CCC(Oc2ccc(-c3noc(COC)n3)cc2)C1 (stereo not given) | inactive
10 | O=C(NCc1cc(-c2ccccc2Cl)no1)C1CC2(CCNCC2)CN1 (stereo not given) | inactive
11 | COc1ccc2c(c1)C(C[C@H]1CN(C(=O)C3CCC3)CC[C@H]1CC(=O)O)=NCC2 | inconclusive [inhibitor, single point]
12 | Cn1cc(CN[C@H]2[C@H](O)[C@H](O)C[C@@H]2c2cccnc2)c2ccccc21 | inconclusive [inhibitor, full curve, poor fit]
13 | O=C(NCc1ccccc1)N1CCOC(CN(CC2CC2)C(=O)c2cccc(F)c2)C1 (stereo not given) | inactive
14 | O=C([C@@H]1C[C@H](Oc2cccnc2)CN1C(=O)NCCc1ccccc1)N1CCOCC1 | inconclusive [inhibitor, full curve, poor fit]
15 | C[S+](=O)([O-])CCn1ncc2cc(OCc3cccc(-c4ccc(F)cc4)c3)ccc21 | inactive
16 | Cc1cc(C(=O)N2C[C@@H](CO)[C@H](c3nc(C4CC4)no3)C2)c(C)o1 | inconclusive [inhibitor, single point]
17 | CC(C)(C)C(=O)N1CCC2(C1)C(=O)N(CCc1ccccc1)c1ccccc12 (stereo not given) | inconclusive [inhibitor, single point]
18 | COC(=O)CN1C(=O)[C@@H]2C[C@@H](O)CN2C2(CN(C3CCCC3)C2)C1=O | inconclusive [inhibitor, single point]
19 | Oc1cc(O)c2c(c1)O[C@H](c1ccc(O)c(O)c1)[C@H](O)C2 | active: 28.2 µM
20 | Cc1cccc(-c2nocc2CCC(=O)NC(C)c2ccc(F)cc2)c1 (stereo not given) | inconclusive [inhibitor, single point]
21 | COCCCNC(=O)c1nc2sccn2c1-c1cccc(C#N)c1 | inconclusive [inhibitor, single point]
22 | CCN(CC)C(=O)CCc1c(C)nn(-c2ccc(F)cc2)c1Oc1cccc(F)c1 | inactive

Row | SMILES | Potency
23 | CC1(C)O[C@@]2(C)CC[C@@H]1C[C@@H]2OC1OC(CO)C(O)C(O)C1O (stereo not given in full) | inconclusive [inhibitor, single point]
24 | COc1cccc(CC(=O)N2CCC3(CC2)NC(=O)N(c2cccc(F)c2)N3)c1 | inconclusive [inhibitor, single point]
25 | O=C(Nc1ccc(F)cc1)c1cccn2cncc12 | inactive
26 | CCCn1nccc1C(=O)N1CCCC(c2[nH]ncc2Cc2ccccc2)C1 (stereo not given) | inconclusive [inhibitor, partial curve, poor fit]
27 | CC(C)C[C@H](NC(=O)CNC(=O)OCc1ccccc1)C(=O)N[C@@H](Cc1ccccc1)C(=O)CCl | inactive
28 | CCN(CC)CC(=O)Oc1ccc(NC(C)=O)cc1 | inconclusive [inhibitor, single point]
29 | COc1ccc(N2CCN(C(=O)c3cc4c(s3)CCN(C(C)=O)C4)CC2)cc1 | inconclusive [inhibitor, partial curve]
30 | Cc1csc(S(=O)(=O)N2CCOC(CCc3ccccc3)C2)c1 (stereo not given) | inactive
31 | COCc1ccc2c(c1)c(OC(C)(C)C(=O)Nc1ccccc1)nn2Cc1cccnc1 | inconclusive [inhibitor, single point]
32 | O=C(Nc1ccccc1)C1=NO[C@@H]2CN(Cc3cccc(O)c3)C[C@H]12 | inconclusive [inhibitor, single point]
33 | Cc1ccccc1N1Cc2c(NCCOc3ccccc3)ncnc2N(C)CC1=O | inconclusive [inhibitor, single point]
34 | CC1=C[C@@H](CNC2CCOCC2)[C@H](C(C)C)C[C@H]1Cc1nc2ccc(F)cc2[nH]1 | inconclusive [inhibitor, single point]
35 | O=C(C1CCCCC1)N1CC[C@H](c2nnc(-c3cccnc3)o2)C1 | inconclusive [inhibitor, single point]
36 | Cc1ccc2oc([C@H]3CCN(Cc4c[nH]c5ccccc45)C3)nc2c1 | inconclusive [inhibitor, single point]
37 | CCc1nc2c(c(-c3ccc(Cl)cc3)n1)CN(C(=O)C1CCCC1)CC2 | inconclusive [inhibitor, single point]
38 | Cn1c(=O)[nH]cc(CC(=O)NCc2cccnc2-n2ccnc2)c1=O | inconclusive [inhibitor, single point]
39 | COc1c(C)c(OCC(O)C(C)(C)O)cc2c1COC2=O (stereo not given) | inconclusive [inhibitor, single point]
40 | CN1CCCC2(Cc3ccccc3CN(C(=O)Cc3ccccc3)C2)C1 (stereo not given) | inconclusive [inhibitor, full curve, poor fit]
41 | O=C(O)c1ccc([S+](=O)([O-])N2CC(COc3ccccc3)C3(CN(c4ccccc4)C3)C2)cc1 (stereo not given) | inconclusive [inhibitor, single point]
42 | COC(=O)[C@@H]1Cc2c([nH]c3ccccc23)[C@H]2C[C@H](NCCN3CCOCC3)C[C@@H](c3ccc(F)cc3)N21 | inactive
43 | CNC(=O)[C@@H]1C[C@H](Oc2ccccc2)CN1C(=O)CCc1nc2ccccc2[nH]1 | inconclusive [inhibitor, single point]
44 | O=C(c1nc2sccn2c1-c1ccccc1)N1CCOCC1 | inactive

Row | SMILES | Potency
45 | COc1ccc(C2=NOC3(CCCN(C(=O)Cc4ccccc4)C3)C2)cc1 (stereo not given) | inactive
46 | CC(C)c1ccc(NC2=N[C@H]3[C@@H](O)[C@H](O)C[C@H](C(=O)NCCN4CCOCC4)[C@H]3S2)cc1 | inactive
47 | Cc1c(C)c(NCC(=O)N(C)C2CCN(Cc3ccc(C(N)=O)cc3)CC2)c(C)c(C)c1N | inconclusive [inhibitor, partial curve, poor fit]
48 | Cc1cc(C(=O)N[C@@H]2CN(Cc3ccccc3)C[C@H]2CN(C)C)n[nH]1 | inconclusive [inhibitor, single point]
49 | C=C(C)C(=O)OC1CC2(C)OC(=CC2=O)C(=C)CC2OC(=O)C(=C)C12 (stereo not given) | inconclusive [inhibitor, single point]
50 | C#CCNC(=O)c1nc(-c2cccc(C(F)(F)F)c2)c2cnccn12 | inconclusive [inhibitor, full curve, poor fit]
51 | Cc1cnc(C2CC2)n1C1CCCN(C(=O)c2nn(C)c3ccccc23)C1 (stereo not given) | inconclusive [inhibitor, partial curve, poor fit]
52 | CN(C)Cc1cn2c(=O)n(C)cc(-c3ccc(F)c(Cl)c3)c2n1 | inconclusive [inhibitor, single point]
53 | COc1ccc(C(=O)N2CC(CNC(=O)N3CCCC3)C3(CCOCC3)C2)cc1F (stereo not given) | inactive
54 | O=C(Nc1cc(C2CC2)nn1-c1ccccc1)c1ccc(Cl)cc1 | inactive
55 | Cc1noc([C@@H]2CN(Cc3ccc(OC(C)C)cc3)C[C@H]2CO)n1 | inconclusive [inhibitor, single point]
56 | C=C(C(=O)O[C@H]1C/C(C)=C/CC/C(CO)=C/[C@H]2OC(=O)C(=C)[C@H]12)C(O)CO (stereo not given in full) | inconclusive [inhibitor, single point]
57 | O=C(CCC(F)(F)F)N1CCCC(CCc2c(F)cccc2F)C1 (stereo not given) | inactive
58 | COc1ccc(CNC2(Cc3cc(-c4ccc(F)cc4)on3)COC2)cc1 | inconclusive [inhibitor, single point]
59 | OCCOc1ccccc1CN1CCCC(Nc2ccc(F)c(F)c2)C1 (stereo not given) | inconclusive [inhibitor, single point]
60 | Cc1oc(C(O)c2ccccc2)nc1C(=O)Nc1ccc(C(=O)Nc2ccccc2)cc1 (stereo not given) | inactive
61 | COc1ccc(S(=O)(=O)N2C[C@@H]3C[C@H](C2)c2c(NC(=O)c4cncnc4)ccc(=O)n2C3)cc1 | inconclusive [inhibitor, partial curve, poor fit]
62 | CC(C)CN1C(=O)CCc2cc(NC(=O)c3ccc4c(c3)OCO4)ccc21 | inconclusive [inhibitor, single point]
63 | CCN(CC)C(=O)c1cccc2c1CCN2C(=O)Nc1cccc(C)c1 | inactive
64 | CCOc1ccc(-c2ccnc(-c3ncccn3)n2)cc1C(=O)O | inconclusive [inhibitor, single point]
65 | Cc1cc(C)n(CCC(=O)NCCC2CCN(C(=O)Nc3ccccc3)CC2)n1 | inconclusive [inhibitor, full curve, poor fit]
